# In PubChem BioAssay (NCATS):
# Inconclusive means that the source gave no clear call. Such entries were picked first, then a sample of the others. For some assays here: Potencies beside an inconclusive call are fits to weak or partial responses and may not hold up. The source made the active and inactive calls. Unless noted, the call rests on the fitted dose curve; in most records, active means well fitted curve in the direction sought with a large enough effect; inconclusive means small, poorly fitted or top-dose-only effect, or another doubt; inactive means no such curve, though single readings can be large; an effect the other way counts as inactive or inconclusive.
# How the values were obtained:
# [1] = target: Rap guanine nucleotide exchange factor 3 (Homo sapiens) (UniProt O95398); assay: Confirmatory qHTS for antagonist of cAMP-regulated guanine nucleotide exchange factor 3 (EPAC1) (AID 1645880); details: EPAC1 Rap1B-BODIPY-GDP exchange, fluorescence; activity, negative = inhibition: at 115 µM (top of the series); further: nearly all actives have a fitted effect of over 55% in size; further: potency means the concentration at half of the fitted maximal effect;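 on activity, negative = inhibition: plate controls were DMSO only for no effect and full effect of the ATA control for full effect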
# Chain of UniProt O95398 (O95398 whole entry, looked up): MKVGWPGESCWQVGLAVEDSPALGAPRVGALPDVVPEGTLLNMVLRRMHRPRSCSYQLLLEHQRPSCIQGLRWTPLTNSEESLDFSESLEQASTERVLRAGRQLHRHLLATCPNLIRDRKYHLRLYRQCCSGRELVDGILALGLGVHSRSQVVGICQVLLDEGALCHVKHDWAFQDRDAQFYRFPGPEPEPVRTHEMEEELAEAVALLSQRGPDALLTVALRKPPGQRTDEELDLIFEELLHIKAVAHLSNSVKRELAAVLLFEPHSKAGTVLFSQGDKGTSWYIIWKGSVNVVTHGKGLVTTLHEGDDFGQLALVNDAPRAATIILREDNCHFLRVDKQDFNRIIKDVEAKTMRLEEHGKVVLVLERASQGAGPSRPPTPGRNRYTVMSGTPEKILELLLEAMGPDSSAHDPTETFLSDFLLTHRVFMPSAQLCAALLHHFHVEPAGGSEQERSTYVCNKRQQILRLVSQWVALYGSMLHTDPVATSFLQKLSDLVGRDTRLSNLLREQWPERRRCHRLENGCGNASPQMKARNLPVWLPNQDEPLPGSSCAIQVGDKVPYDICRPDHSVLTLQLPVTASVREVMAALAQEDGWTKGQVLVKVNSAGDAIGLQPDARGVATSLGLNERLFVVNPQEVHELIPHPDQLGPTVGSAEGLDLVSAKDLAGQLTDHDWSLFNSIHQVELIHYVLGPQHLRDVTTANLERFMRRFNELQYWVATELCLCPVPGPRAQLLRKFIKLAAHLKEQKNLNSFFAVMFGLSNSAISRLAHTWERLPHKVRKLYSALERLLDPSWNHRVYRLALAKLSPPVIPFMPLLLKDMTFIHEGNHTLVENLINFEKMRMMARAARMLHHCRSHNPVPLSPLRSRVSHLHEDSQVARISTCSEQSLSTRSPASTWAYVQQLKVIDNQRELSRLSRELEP
# In short: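 Released BODIPY-GDP fluoresces less than Rap1-bound BODIPY-GDP; the signal is followed at 480/540 nm at 5-min intervals over 30 min, after 5 min at room temperature. Reactions contain 100 nM EPAC1, 250 nM RAP1B-BODIPY-GDP and 50 uM GDP; results are normalized to ATA and DMSO.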
# [2] = target: Rap guanine nucleotide exchange factor 4 (Homo sapiens) (UniProt Q8WZA2); assay: Confirmatory qHTS for agonist of cAMP-regulated guanine nucleotide exchange factor 4 (EPAC2) (AID 1645884); details: EPAC2 GEF activity, Rap1B-BODIPY-GDP fluorescence; activation: at 154 µM (top of the series), percent relative to cAMP agonist control;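 further: nucleotide exchange releases bodipy-GDP from Rap1 and this lowers its fluorescence; nearly all actives have a fitted effect of over 65% in size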; further: potency means the concentration at half of the fitted maximal effect; on activation: on the % scale 0 is the no-effect control and ±100 the full control effect
# Chain of UniProt Q8WZA2 (Q8WZA2 whole entry, looked up): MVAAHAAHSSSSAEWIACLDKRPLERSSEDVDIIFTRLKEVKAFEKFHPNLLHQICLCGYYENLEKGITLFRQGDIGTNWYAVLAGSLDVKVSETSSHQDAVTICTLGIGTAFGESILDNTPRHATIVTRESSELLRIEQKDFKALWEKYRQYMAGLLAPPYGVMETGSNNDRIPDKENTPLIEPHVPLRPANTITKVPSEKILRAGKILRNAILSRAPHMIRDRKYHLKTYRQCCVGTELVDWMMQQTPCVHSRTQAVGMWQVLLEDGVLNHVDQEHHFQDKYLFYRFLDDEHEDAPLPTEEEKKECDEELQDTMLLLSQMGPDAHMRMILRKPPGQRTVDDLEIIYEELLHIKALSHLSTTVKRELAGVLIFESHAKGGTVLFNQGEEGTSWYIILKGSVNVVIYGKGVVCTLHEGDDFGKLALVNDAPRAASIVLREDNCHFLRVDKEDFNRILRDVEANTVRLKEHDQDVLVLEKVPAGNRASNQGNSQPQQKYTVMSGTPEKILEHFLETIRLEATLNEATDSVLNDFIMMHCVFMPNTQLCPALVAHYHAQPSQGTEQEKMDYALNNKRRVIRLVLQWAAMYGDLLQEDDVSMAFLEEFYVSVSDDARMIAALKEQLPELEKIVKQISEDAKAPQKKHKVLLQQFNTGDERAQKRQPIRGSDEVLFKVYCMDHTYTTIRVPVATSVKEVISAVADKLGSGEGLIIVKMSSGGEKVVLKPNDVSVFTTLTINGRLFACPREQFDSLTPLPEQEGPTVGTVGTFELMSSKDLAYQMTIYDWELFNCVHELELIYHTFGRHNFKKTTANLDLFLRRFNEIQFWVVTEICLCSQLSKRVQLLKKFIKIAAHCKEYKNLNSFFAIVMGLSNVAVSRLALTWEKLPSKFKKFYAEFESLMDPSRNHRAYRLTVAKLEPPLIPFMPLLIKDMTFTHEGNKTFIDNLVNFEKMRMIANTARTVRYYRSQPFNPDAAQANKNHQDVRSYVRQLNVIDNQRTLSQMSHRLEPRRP
# [3] = target: Rap guanine nucleotide exchange factor 3 (Homo sapiens) (UniProt O95398); assay: Counterscreen qHTS for agonist of cAMP-regulated guanine nucleotide exchange factor 3 (EPAC1) (AID 1645889); details: EPAC1 Rap1B-BODIPY-GDP exchange, fluorescence; activation: at 154 µM (top of the series) unless noted; further: nearly all actives have a fitted effect of over 40% in size; further: potency means the concentration at half of the fitted maximal effect; on activation: % of control where 0% means no effect
# In short: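 Rap1B–BODIPY-GDP (250 nM) with 50 uM GDP; compounds pin-transferred to 9.74 nM–152 uM final (activator) or from 7.32 nM upwards (inhibitor). Fluorescence Ex/Em 480/540 nm read at 5 and 30 min, then after adding cAMP or buffer, at room temperature.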
# [4] = target: DNA polymerase eta (Homo sapiens) (UniProt Q9Y253); assay: qHTS for Inhibitors of Polymerase Eta: Confirmatory Assay for Cherry-picked Compounds (AID 720502); details: Pol eta primer extension, TAMRA/BHQ fluorescence, 10 min; further: potency means the concentration at half of the fitted maximal effect
# Chain of UniProt Q9Y253 (Q9Y253 whole entry, looked up): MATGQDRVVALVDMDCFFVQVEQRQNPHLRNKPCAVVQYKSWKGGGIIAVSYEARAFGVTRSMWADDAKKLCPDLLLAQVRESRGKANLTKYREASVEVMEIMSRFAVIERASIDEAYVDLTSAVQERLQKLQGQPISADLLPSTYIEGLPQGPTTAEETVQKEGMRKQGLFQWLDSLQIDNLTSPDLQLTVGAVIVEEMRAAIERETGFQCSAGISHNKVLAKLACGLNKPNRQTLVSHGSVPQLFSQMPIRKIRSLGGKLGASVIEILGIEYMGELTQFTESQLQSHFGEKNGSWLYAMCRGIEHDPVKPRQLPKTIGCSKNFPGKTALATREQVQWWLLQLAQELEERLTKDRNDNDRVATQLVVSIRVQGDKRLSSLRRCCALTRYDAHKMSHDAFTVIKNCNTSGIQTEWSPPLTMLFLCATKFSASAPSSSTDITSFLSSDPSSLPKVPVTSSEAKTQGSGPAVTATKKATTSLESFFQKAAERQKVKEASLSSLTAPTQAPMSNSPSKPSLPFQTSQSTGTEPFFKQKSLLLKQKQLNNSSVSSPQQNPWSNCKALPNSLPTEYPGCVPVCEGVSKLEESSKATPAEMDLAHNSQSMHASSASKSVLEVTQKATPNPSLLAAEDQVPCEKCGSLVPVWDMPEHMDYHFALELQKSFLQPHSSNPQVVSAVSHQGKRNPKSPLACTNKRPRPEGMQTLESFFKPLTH
# In short: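 Readout: TAMRA dequenching, ex 525/em 598 nm, read at 0 and 10 min. Enzyme: 10 nM human Pol eta, preincubated with compound 15 min RT. Substrate: 50 nM final annealed primer/reporter/template duplex.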
# [5] = target: Vitamin D3 receptor (Homo sapiens) (UniProt P11473); assay: qHTS for Inhibitors of the vitamin D receptor (VDR): Hit Validation in Primary Screen (AID 602199); details: VDR-coactivator inhibition assay, qHTS confirmation; further: potency means the concentration at half of the fitted maximal effect
# Chain of UniProt P11473 (P11473 whole entry, looked up, the tested form may be a part): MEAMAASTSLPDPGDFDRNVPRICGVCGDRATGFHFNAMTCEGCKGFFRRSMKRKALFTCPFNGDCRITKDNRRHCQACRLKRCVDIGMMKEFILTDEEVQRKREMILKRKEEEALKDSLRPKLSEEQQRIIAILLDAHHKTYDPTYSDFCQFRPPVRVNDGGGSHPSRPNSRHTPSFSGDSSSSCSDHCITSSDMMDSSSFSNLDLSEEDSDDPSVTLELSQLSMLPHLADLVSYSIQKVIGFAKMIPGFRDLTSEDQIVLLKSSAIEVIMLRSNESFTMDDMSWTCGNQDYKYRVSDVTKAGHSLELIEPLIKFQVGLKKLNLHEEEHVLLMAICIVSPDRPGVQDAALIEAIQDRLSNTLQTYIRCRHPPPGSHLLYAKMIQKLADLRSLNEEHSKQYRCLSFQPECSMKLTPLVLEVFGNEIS
# In short: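 Fluorescence polarization (Ex 620/Em 688 nm) of Alexa 647-SRC2-3 peptide with 800 nM VDR and 5 uM LG19078. Compounds at several concentrations, 2 h at room temperature.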
# [6] = qHTS for Inhibitors of the vitamin D receptor (VDR): Hit Validation using a Texas Red Assay (AID 602201); further: potency means the concentration at half of the fitted maximal effect
# In short: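 Fluorescence polarization with 1.5 uM VDR-LBD, LG19078 and 7 nM Texas Red (final). After 2 hours at ambient temperature, read at Ex 595 nm/Em 615 nm.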
# [7] = qHTS for Inhibitors of the vitamin D receptor (VDR): Hit Validation using a Cytotoxicity Assay (AID 602204); further: nearly all actives have a fitted effect of over 75% in size
# In short: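 Luminescence proportional to cellular ATP reports viability. Cells (20,000 per well) rested 4 h, were treated with compounds for 18 h, then incubated 30 min with detection reagent. Controls: cycloheximide (high) and DMSO.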
# [8] = target: Vitamin D3 receptor (Homo sapiens) (UniProt P11473); assay: qHTS for Inhibitors of the vitamin D receptor (VDR): Hit Validation using a Beta-Lactamase Assay (AID 602202); further: potency means the concentration at half of the fitted maximal effect
# In short: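 Stably transfected HEK293 cells expressing VDR-GAL4 DNA-binding domain fusion with UAS-driven beta-lactamase reporter, activated by agonist LG190178; compounds incubated 18 h, then FRET beta-lactam substrate 2 h; cleaved substrate read at 447 nm emission.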
# [9] = target: DNA polymerase kappa (Homo sapiens) (UniProt Q9UBT6); assay: qHTS for Inhibitors of Polymerase Kappa: Confirmatory Assay for Cherry-picked Compounds (AID 720501); details: purified Pol-kappa, fluorescent strand-displacement substrate; further: potency means the concentration at half of the fitted maximal effect
# In short: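 10 nM human Pol-kappa was preincubated with compound 15 min at room temperature, then 50 nM (final) primer/template substrate with TAMRA-labeled reporter strand and BHQ-2-labeled template added. Fluorescence (Ex 525, Em 598 nm) read at 0 and 10 min.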
# [10] = target: Lethal(3)malignant brain tumor-like protein 1 (Homo sapiens) (UniProt Q9Y468); assay: qHTS Assay for the Inhibitors of L3MBTL1: Hit Validation (AID 540279); details: L3MBTL1 methyl-lysine binding inhibition, biochemical qHTS; further: potency means the concentration at half of the fitted maximal effect; nearly all actives have a fitted effect of over 70% in size
# In short: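 L3MBTL1 (50 nM final) preformed 30 min with biotinylated H3(1-15)K9me1 peptide (75 nM), then compound 30 min at room temperature. Streptavidin donor and nickel chelate acceptor AlphaScreen beads (10 ug/mL each final) added for 30 min before read.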
# [11] = AP1 Signaling Pathway (AID 357; active means well fitted curve in either direction with a large enough effect, not every such curve was filed as active; inconclusive means small, poorly fitted or top-dose-only effect, or another doubt;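 further: ME-180 reporter cells stimulated with EGF at its EC50 level; top concentration of the series differs between compounds; on the % scale 0 is the no-effect control and ±100 the full control effect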); details: ME-180 AP-1-bla reporter, EGF-induced, beta-lactamase ratio, 5 h; at 7.69 µM (top of the series) unless noted
# In short: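 Cells are seeded overnight, exposed to compound titrations and an EC50 level of EGF for 5 hours at 37 °C, then loaded with CCF4 dye for 2.5 hours. Beta-lactamase activity under the AP-1 element is read as a blue/green ratio.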
# [12] = target: Cytochrome P450 1A2 (Homo sapiens) (UniProt P05177); assay: p450-cyp1a2 (AID 410; calls by dose curve; further: potency means the concentration at half of the fitted maximal effect)
# Chain of UniProt P05177 (P05177 whole entry, looked up): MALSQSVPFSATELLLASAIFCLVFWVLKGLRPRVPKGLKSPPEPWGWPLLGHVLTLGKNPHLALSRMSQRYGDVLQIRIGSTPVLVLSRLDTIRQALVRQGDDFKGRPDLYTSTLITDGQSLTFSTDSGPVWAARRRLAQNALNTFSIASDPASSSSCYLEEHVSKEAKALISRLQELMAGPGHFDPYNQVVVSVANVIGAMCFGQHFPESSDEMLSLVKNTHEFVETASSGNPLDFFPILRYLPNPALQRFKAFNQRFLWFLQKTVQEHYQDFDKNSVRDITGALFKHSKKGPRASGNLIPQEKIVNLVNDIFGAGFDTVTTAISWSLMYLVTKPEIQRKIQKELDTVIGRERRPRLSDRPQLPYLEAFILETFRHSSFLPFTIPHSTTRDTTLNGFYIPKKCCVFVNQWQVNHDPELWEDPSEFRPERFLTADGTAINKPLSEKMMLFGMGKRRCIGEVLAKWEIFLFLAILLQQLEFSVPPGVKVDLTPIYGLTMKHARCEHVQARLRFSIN
# In short: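 20nM CYP1A2, 100uM Luciferin-ME (=Km), 100mM KPO4; cpd 10 min RT; +NADPH regen, 60 min RT; stop/detect 20 min; luminescence. Normalized to furafylline 57 uM = full inhibition.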
# [13] = Stat Signaling Pathway (AID 446; active means well fitted curve in either direction with a large enough effect, not every such curve was filed as active; inconclusive means small, poorly fitted or top-dose-only effect, or another doubt;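 further: ME-180 cervical cancer cells given 40 pM IL-6 alongside compound; SIE-controlled beta-lactamase reporter measured as 460/530 nm FRET emission ratio; top concentration of the series differs between compounds; on the % scale 0 is the no-effect control and ±100 the full control effect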); details: ME-180 (cervical carcinoma) SIE beta-lactamase reporter, IL-6 stimulated, 5 h; at 7.69 µM (top of the series) unless noted
# In short: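 FRET read-out (405 nm excitation, 460/530 nm emission) of a beta-lactamase reporter under a STAT-inducible element in ME-180 cervical carcinoma cells. Cells with compound receive 40 pM IL-6 for 5 h. Values are normalised to AC90 stimulation and AC90 JAK-inhibitor controls.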
# [14] = target: Mitogen-activated protein kinase 10 (Mus musculus) (UniProt Q61831); assay: JNK3 AlphaScreen Assay (AID 530; active means well fitted curve in either direction with a large enough effect, not every such curve was filed as active; inconclusive means small, poorly fitted or top-dose-only effect, or another doubt); details: JNK3 lysate, c-Jun phosphorylation; activity change, negative = inhibition: at 57.1 µM (top of the series)
# In short: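 HepG2 lysate (IL-1b/TNFa pre-activated) + biotin-GST-cJun 1-79 + anti-pSer73 cJun; cpd titration, 15 min RT; ATP 10 uM start; Tris pH 7.6, MgCl2, DTT, vanadate; beads in EDTA buffer; AlphaScreen.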
# [15] = target: Ubiquitin carboxyl-terminal hydrolase 1 (Homo sapiens) (UniProt O94782); assay: Inhibitors of USP1/UAF1: Pilot qHTS (AID 504865); further: potency means the concentration at half of the fitted maximal effect;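 further: rhodamine fluorescence freed from ubiquitin-rhodamine substrate followed over time; nearly all actives have a fitted effect of over 35% in size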; on activity change, negative = inhibition: top concentration of the series differs between compounds; on the % scale 0 is the no-effect control and ±100 the full control effect
# Chain of UniProt O94782 (O94782 whole entry, looked up): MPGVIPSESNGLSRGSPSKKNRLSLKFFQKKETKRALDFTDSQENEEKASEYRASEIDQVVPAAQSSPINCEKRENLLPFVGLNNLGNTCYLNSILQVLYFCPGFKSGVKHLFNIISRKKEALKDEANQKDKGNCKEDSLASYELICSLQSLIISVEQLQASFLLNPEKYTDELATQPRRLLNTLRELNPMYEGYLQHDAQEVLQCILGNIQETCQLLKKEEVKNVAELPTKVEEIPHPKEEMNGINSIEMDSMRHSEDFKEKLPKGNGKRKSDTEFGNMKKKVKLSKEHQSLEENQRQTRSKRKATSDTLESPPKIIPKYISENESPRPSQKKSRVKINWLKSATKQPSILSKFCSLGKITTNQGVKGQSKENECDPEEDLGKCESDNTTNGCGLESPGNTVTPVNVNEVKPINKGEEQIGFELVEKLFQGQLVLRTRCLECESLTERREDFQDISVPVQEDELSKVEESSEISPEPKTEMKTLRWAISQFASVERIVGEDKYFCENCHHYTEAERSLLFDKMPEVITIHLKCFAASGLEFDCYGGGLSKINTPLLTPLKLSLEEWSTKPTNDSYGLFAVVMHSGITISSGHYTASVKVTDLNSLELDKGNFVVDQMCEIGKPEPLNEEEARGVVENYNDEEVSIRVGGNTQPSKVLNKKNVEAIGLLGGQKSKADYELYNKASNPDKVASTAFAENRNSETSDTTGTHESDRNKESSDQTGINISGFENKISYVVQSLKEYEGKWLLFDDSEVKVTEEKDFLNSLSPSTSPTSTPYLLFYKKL
# In short: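 USP1/UAF1 complex (1nM) preincubated with compound 15 min at room temperature, then Ub-Rho substrate (150nM final) added. Fluorescence read kinetically at 480/540 nm, 6 reads every 60 seconds. Buffer: 50mM HEPES pH 7.8, 0.5mM EDTA, 0.1 mg/ml BSA, 1mM TCEP, 0.01% Tween-20.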
# [16] = target: Glucocorticoid receptor (Homo sapiens) (UniProt P04150); assay: GR-EFC Redistribution (AID 451; calls by dose curve; further: potency means the concentration at half of the fitted maximal effect); details: CHO-K1 GR-EFC translocation, beta-gal luminescence, 2 h
# In short: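 CHO-K1 cells expressing nuclear EA and GR-ED fragments of b-gal; compounds titrated up to 46 uM final, 2 h at 37 C. GR nuclear translocation read as complemented b-gal luminescence after 1 h RT detection.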
# [17] = target: 3',5'-cyclic-AMP phosphodiesterase 4B (Homo sapiens) (UniProt Q07343); assay: qHTS Assay for Inhibitors of PDE-IV (AID 607; active means well fitted activation curve with a large enough effect in the main read-out, with a control signal flat, not every such curve was filed as active; inconclusive means small, poorly fitted or top-dose-only effect, or effect the other way, or a change in a side signal; further: potency means the concentration at half of the fitted maximal effect); details: HEK293 ACTOne CNG channel cells, membrane potential fluorescence; activation (PDE inhibition): at 22.9 µM (top of the series)
# In short: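 Cell-based read-out of cAMP via a modified cyclic nucleotide-gated channel and membrane potential dye (535/590 nm) in HEK293 cells expressing PDE4 endogenously. Compounds tested up to 22.9 uM final; 100 uM RO 20-1724 reference.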
# [18] = target: Tyrosyl-DNA phosphodiesterase 1 (Homo sapiens) (UniProt Q9NUW8); assay: Confirmation Assay for Inhibitors of Tyrosyl-DNA Phosphodiesterase (TDP1) (AID 489007); details: recombinant human TDP1 enzymatic activity, dose-response; further: potency means the concentration at half of the fitted maximal effect; nearly all actives have a fitted effect of over 40% in size
# Chain of UniProt Q9NUW8 (Q9NUW8 whole entry, looked up): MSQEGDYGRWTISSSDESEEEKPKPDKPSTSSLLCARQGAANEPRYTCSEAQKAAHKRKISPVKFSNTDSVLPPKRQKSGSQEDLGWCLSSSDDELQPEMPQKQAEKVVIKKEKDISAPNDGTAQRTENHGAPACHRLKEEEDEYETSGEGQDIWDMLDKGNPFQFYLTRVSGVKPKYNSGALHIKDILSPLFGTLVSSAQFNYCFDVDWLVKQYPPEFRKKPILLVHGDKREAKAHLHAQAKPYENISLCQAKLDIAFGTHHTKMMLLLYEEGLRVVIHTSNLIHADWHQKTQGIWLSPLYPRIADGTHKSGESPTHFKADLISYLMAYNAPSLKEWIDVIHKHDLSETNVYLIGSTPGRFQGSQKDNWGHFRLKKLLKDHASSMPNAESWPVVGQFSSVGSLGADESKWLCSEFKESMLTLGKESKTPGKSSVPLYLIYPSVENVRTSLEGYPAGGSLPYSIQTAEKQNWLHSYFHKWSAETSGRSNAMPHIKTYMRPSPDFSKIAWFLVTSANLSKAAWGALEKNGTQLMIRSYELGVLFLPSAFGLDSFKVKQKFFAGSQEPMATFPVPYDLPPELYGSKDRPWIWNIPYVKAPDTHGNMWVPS
# In short: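 AlphaScreen read-out: streptavidin donor and anti-FITC acceptor beads (10 ug/ml) bind intact substrate, so Tdp1 removal of tyrosine-FITC lowers signal. Enzyme 1 nM, substrate 15 nM, 5 min reaction at room temperature after 15 min compound preincubation.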
# [19] = qHTS for Inhibitors of WRN Helicase: Thiazole Orange DNA Binding Counterscreen (AID 720499);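 further: drop in dye fluorescence marks compound binding to DNA; potency means the concentration at half of the fitted maximal effect; nearly all actives have a fitted effect of over 60% in size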
# In short: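 Here, compounds that displace thiazole orange (100 nM) from unlabeled DNA (50 nM) lower fluorescence, read at excitation 480 nm and emission 530 nm after a 15 min room-temperature incubation.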
# Tags describe the fitted curve by direction and shape.
smiles,measurement,setting,value
COc1ccccc1NC(=O)c1ccccc1NS(=O)(=O)c1cccs1,Potency,[1],"inconclusive: 84.9 µM [inhibitor, partial curve]"
same,Potency,[2],inactive
same,Potency,[3],"inconclusive: 20 µM [activator, partial curve, poor fit]"
CCOc1cc(/C=C2/SC(=S)NC2=O)ccc1OC(=O)c1ccco1,Potency,[4],"inconclusive: 84.9 µM [inhibitor, single point]"
same,Potency,[1],active: 37.9 µM
same,Potency,[2],inactive
same,Potency,[3],inactive
O=C(NNc1cc(Br)c(O)c(Br)c1)c1ccccc1,Potency,[5],"inconclusive: 11.2 µM [inhibitor, partial curve]"
same,Potency,[6],active: 25.1 µM
same,Potency,[7],inactive
same,Potency,[1],"inconclusive: 14.1 µM [inhibitor, full curve]"
same,activation,[2],"inactive: -6.77% [at 17.1 µM, percent relative to cAMP agonist control]"
same,activation,[3],inactive: 11.6% [at 30.8 µM]
COc1ccccc1C(=O)Nc1nnc(SCc2cc(=O)c3ccccc3[nH]2)s1,Potency,[1],"inconclusive: 95.3 µM [inhibitor, partial curve, poor fit]"
same,Potency,[2],inactive
same,Potency,[3],inactive
CCSc1nc2c([nH]c3ccccc32)c(=O)n1-c1cccc(OC)c1,Potency,[1],"inconclusive: 95.3 µM [inhibitor, partial curve]"
same,Potency,[2],inactive
same,Potency,[3],"inconclusive: 20 µM [activator, partial curve, poor fit]"
CC(C)(C)c1ccc(S(=O)(=O)NC(=O)C2(C)CCN2C(=O)Cc2ccc(-c3ccccc3)cc2)cc1 (stereo not drawn),Potency,[1],"inconclusive: 63.1 µM [inhibitor, partial curve, poor fit]"
same,activation,[2],"inactive: -4.75% [at 17.1 µM, percent relative to cAMP agonist control]"
same,activation,[3],inactive: 6.27% [at 30.8 µM]
COc1ccc2c(c1)Cc1sc(NC(=O)c3cccc(C)c3)nc1-2,Potency,[6],active: 10 µM
same,Potency,[8],"inconclusive: 29.1 µM [inhibitor, single point]"
same,Potency,[7],"inconclusive: 23.8 µM [cytotoxic, single point]"
same,Potency,[1],active: 84.9 µM
same,Potency,[2],"inconclusive: 31.6 µM [activator, single point]"
same,Potency,[3],"inconclusive: 5.62 µM [activator, partial curve, poor fit]"
Cc1ccc(S(=O)c2ccc([N+](=O)[O-])c3nonc23)cc1 (stereo not drawn),Potency,[9],"inconclusive: 75.2 µM [inhibitor, partial curve]"
same,Potency,[1],active: 23.9 µM
same,Potency,[2],"inconclusive: 100 µM [activator, single point]"
same,Potency,[3],"inconclusive: 11.2 µM [activator, full curve, poor fit]"
Cc1ccc(NC(=O)C2CCN(S(=O)(=O)c3ccc4c(c3)OCCCO4)CC2)nc1,Potency,[1],inactive
same,activation,[2],"inactive: 6.5% [at 17.1 µM, percent relative to cAMP agonist control]"
same,activation,[3],inconclusive: 57.2% [activator] [at 30.8 µM]
COc1ccc(Cl)cc1NC(=O)COC(=O)c1cc(NS(=O)(=O)c2cccs2)ccc1O,Potency,[10],"inconclusive: 23.8 µM [inhibitor, single point]"
same,Potency,[1],"inconclusive: 12 µM [inhibitor, partial curve, poor fit]"
same,Potency,[2],"inconclusive: 126 µM [activator, partial curve, poor fit]"
same,activation,[3],inconclusive: 72.4% [activator]
O=C(Cn1c(=O)c2ccccc2n(CC(=O)Nc2ccc(Cl)cc2)c1=O)NCCc1ccccc1,Potency,[1],"inconclusive: 95.3 µM [inhibitor, partial curve, poor fit]"
same,Potency,[2],"inconclusive: 50.1 µM [activator, single point]"
same,activation,[3],inconclusive: 43.3% [activator]
COc1cccc(Cn2c(=O)c(-c3ccc(Cl)cc3)nc3cnc(N4CCNCC4)nc32)c1,"activity change, negative = inhibition",[11],inconclusive: 51.4% [activator]
same,Potency,[12],inconclusive: 25.1 µM [decreasing]
same,"activity, negative = inhibition",[13],inconclusive: 244% [activator]
same,Potency,[14],"inconclusive: 15.8 µM [activator, partial curve]"
same,Potency,[15],inactive
COCCn1c(=O)c(-c2cccs2)nc2cnc(Nc3ccccc3)nc21,Potency,[16],inconclusive: > 46 µM [single point]
same,Potency,[17],"inconclusive: 2 µM [activator, full curve]"
O=C(CSc1nc2ccccc2n1CCc1ccccc1)c1ccc(O)c(O)c1,Potency,[18],"inconclusive: 10.2 µM [inhibitor, single point]"
same,Potency,[19],active: 17.1 µM
Cc1cccn2c(=O)cc(CSc3nnc(NC(=O)COc4ccccc4)s3)nc12,Potency,[18],"inconclusive: 39.8 µM [inhibitor, single point]"
COc1cc2c(cc1OC)C1C(=O)c3ccc4c(c3OC1CO2)C=CC(C)(C)O4 (stereo not drawn),Potency,[15],"inconclusive: 89.1 µM [inhibitor, partial curve, poor fit]"
